# According to the supplement of paper PMC10338343:
# ± gives the standard deviation. Only a part is listed here, and it is no random draw.
# System: MIWI (PIWIL1) piRISC loaded with piRNA #1 (30 nt)
# Test: pre-steady-state target cleavage rate (min^-1); MIWI and MILI are mouse PIWI proteins and EfPiwi is from a freshwater sponge; tags in brackets are library labels; higher = faster piRNA-guided slicing of the target
# Details: guide: piRNA #1 5'p-UGAGGUAGUAGGUUGUAUAGUAUCCAGAGG; auxiliary factor: 500 nM mouse GTSF1
# Method in brief: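 In Cleave-'n-Seq, a transcribed, DNA-blocked target RNA library (0.1 nM) was combined with 1 nM active affinity-purified piRISC bearing one synthetic guide, with or without 500 nM GTSF1 partner protein. Reactions ran in HEPES–potassium acetate buffer at 33 °C for 0–8 or 0–960 min. Uncleaved targets were sequenced and normalised to depth and to weakly complementary targets, three trials were pooled, and k3 was capped at 0.0001 min^-1. The pre-steady-state cleavage rate was obtained by fitting a burst-and-steady-state model.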
row,Sequence,pre-steady-state target cleavage rate
1,GGAGACGAUACUAUACAACCUACUACCACA,1.15 ± 0.063
2,CCUGUGGAUACUAUACAACCUACUAGCUCA,0.183 ± 0.049
3,GGAGACCAAACUAUACAACCUACUACCUGA,0.641 ± 0.1
4,GGACUGGAAACUAUACAAGCUACUACCUCA,0.909 ± 0.071
5,GGAGUGGAUACUAUAGAACCUUCUACCUCA,0.0669 ± 0.01
6,GGACUGGAUACUAUACAACCUACUACACUCA,0.617 ± 0.11
7,GGAGACCUAACUAACAACCUACUACCUCA,0.00953 ± 0.0044
8,GGAGACCUAUCUAUACACCCUACUACCUCA,0.536 ± 0.042
9,GGAGAGGAUACUAUACAACCUACUACCGCA,0.306 ± 0.027
10,GGAGACCUAACUAUUCAACCUACUACCUCA,0.665 ± 0.063
11,GGAGACCUAUCUAUACAACCUACUUACCUCA,0.898 ± 0.097
12,GGAGACCUAACUAUACAAGCUACUACGUCA,0.426 ± 0.034
13,GCUGUGGAUACUAUACAACCUAGUACCUCA,0.439 ± 0.068
14,GCUCUGGAUACUAUACAACGAACUACCUCA,0.0208 ± 0.0043
15,GGACUGGAUACUAUACAGACCUACUACCUCA,< 0.0001
16,GGAGACCUAUGUAUACAACCUAGAUGGAGA [g9:g19:cont:t1A],< 0.0001
17,CCUCUGGAUACUAUACUACCUACUACCUCA,1.65 ± 0.12
18,GGAGACCUAUGUAUCACAACCUACUACCUCA,0.00357 ± 0.0033
19,GGAGACCUAUCUAUACAUCCUACUACCACA,0.249 ± 0.029
20,GGAGACCUUACUAUACAACCUACUGACCUCA,0.59 ± 0.041

row,Sequence,pre-steady-state target cleavage rate
1,GGAGACCUAUGAAUACCAACCUACUACCUCA,0.0073 ± 0.0018
2,GGUCUGGAUAGUAUACAACCUACUUCCUCA,0.302 ± 0.056
3,GCUCAGGAUACUAUAGAACCUACUACCUCA,0.384 ± 0.041
4,GGAGACCUAACUAUACAACCUACUGCCUCA,0.496 ± 0.065
5,GGAGACCUUACUAUACAACCUAGUUCCUCA,0.0816 ± 0.014
6,GGACUGGAUACUAUACAACCUACUACCGUCA,0.0636 ± 0.0098
7,CCUCUGGAUACUUUACAACCUACAACCUCA,1.34 ± 0.1
8,CCUCUGGAUACUUUACAACCUACUACGUCA,1.27 ± 0.083
9,CCACUGGAUACUAUUCAACCUACUACCUCA,1.99 ± 0.12
10,CCUGUGGAUACUAUACAACCUACUUCCUCA,0.0178 ± 0.006
11,GGAGUGGAUACUAUACAAGCUACUUCCUCA,0.374 ± 0.031
12,GGAGACCUAUGUAUACAACCUACUAACUCA,0.268 ± 0.033
13,GCUCUGGAUACUAUACAACGUACUACCUGA,0.623 ± 0.056
14,GGAGACGAUACUAUACUACCUACUAGCUCA,0.551 ± 0.051
15,GGAGACCUAUGUAUACAAGCUACUAGCUCA,0.00597 ± 0.003
16,GGAGACCUUACUAUACAACCUAGUACCACA,0.345 ± 0.065
17,CCUCUGGAUACUAUACAAACCUACUACCUCA,0.0394 ± 0.011
18,CCUCUGGAUACUAUACAACCUUCUACCACA,0.763 ± 0.05
19,GGACUGGAUAGUAUUCAACCUACUACCUCA,0.572 ± 0.063
20,GGAGACCUUUCUAUACAACGUACUACCUCA,0.113 ± 0.01
